Test results taken from paper PMC12136788.
Changes are numbered by the printed parent chain. The list shows a part of the results.

B1: chr11:29608294:29608295:+_ENSMUSG00000020458_ENSMUST00000102843|mus_mus|FALSE|FALSE (ssRNA)
RNA: GGGAGUUCUACAGUCCGACGAUCAAAUGUUUCACUUUCUUUCAUUUUGUCUUCCUUAGAAGAAAGUAAGUCAUCAUUGGAAUAAAUUGCAGUAUUAAACUCUUCCAUUUGCAAAGAAAUUGUCUCCUUUUUGGUCAAUGUUGGCAACAGAGGAUUGAGCAUCA
B2: chr16:94690093:94690094:+_ENSMUSG00000040785_ENSMUST00000117648|mus_hu|mus_mus_mus_hu_True|48_68 (ssRNA)
RNA: GGGAGUUCUACAGUCCGACGAUCGGGCUGGGAUGACGGACACACAGCCUCGAUUCCAGGGGGAAAAAAAAAUAGCCGAUACUAAUUUAAAAAGUAUAAUGAUUUUUGAAAAUCAGAUUACAUCUAUAAAAGAUGAAAAGCAAACAACAGAGGAUUGAGCAUCA
B3: 2835912_2836032_2307_3pUTR_ENSG00000087266_ENST00000503393|human|control|control (ssRNA)
RNA: GGGAGUUCUACAGUCCGACGAUCAGCCCCAGCCACCAAGGCAAAGCUCACUGCUGCUUUAUUGGAGGCAACAGCCCCUACUGGAGCCUGUGUCUUAGCGUUCCUGGGGGUCCCAGGGCCAGCCCCGGCCCCCACCCAGCUGCCCAACAGAGGAUUGAGCAUCA
B4: 60832291_60832411_462_CDS_ENSMUSG00000072437_ENSMUST00000088237|mouse|control|control (ssRNA)
RNA: GGGAGUUCUACAGUCCGACGAUCAUCGUCCUCGGGCGGCCCCAUCGUGGGCCCCGCCGCCGUGGGCCCGGGCCCCUCAUGCGGGGAGCCGCGGUCGCUAGCCCUGGUGAUGAGCGUGGCAAGCCCCAGGUAGUCGUUCCAGGACAACAGAGGAUUGAGCAUCA
B5: chr6:40197388:40197389:+_ENSMUSG00000057716_ENSMUST00000061740|mus_mus|mus_mus_mus_hu_False|18_58 (ssRNA)
RNA: GGGAGUUCUACAGUCCGACGAUCGAGACACUGGGGUGGAUUUAUUCCACCUCUGUUUGGGUGCUAGCCACUAAGACAGCUAUUUUGGGAUUCAUGGCCUUGAAUAUCAAGAGGGAAGGGACGAGAAUGGAAAGAGUCAAGAGUCAACAGAGGAUUGAGCAUCA
B6: 66852511_66855443_578_CDS_ENSG00000159593_ENST00000290810|human|control|control (ssRNA)
RNA: GGGAGUUCUACAGUCCGACGAUCUAAUGCAUUAUCUGGAUGAGAUUCUAUUACUGGAUGUUCUUUUAUAAUGAUCCUCAUAUAACCAACUAGUCCAUAUGUCCUACAGAUCAAAAGAGGAAUCUGGGAAUUCCAGAGGACAUCCAACAGAGGAUUGAGCAUCA
B7: chr4:25749455:25749456:-_ENSG00000091490_ENST00000264868|hu_hu|hu_hu_hu_mus_False|58_98 (ssRNA)
RNA: GGGAGUUCUACAGUCCGACGAUCGCACUAUGACCUCCCCUAGAAAACACAGGGGGAAAAAAUGUAAACCAAUGUACAAAGCUAUUGCCUUCCCUGUGUGUGGAGUGUUUGUCUCAAGGCUCCUUCUAGCUGCUGGAUUUGGGACAACAGAGGAUUGAGCAUCA
B8: chr3:148802587:148802588:-_ENSG00000071794_ENST00000310053|hu_mus|hu_hu_hu_mus_False|28_98 (ssRNA)
RNA: GGGAGUUCUACAGUCCGACGAUCUCCAACAACUUGUCCUCUCAAACUUCCAAAUAAAACCAAAUCUUGCUCUUCAUCACUCGUUAGGAAGUCAUCUGGAGGAAUAACAUCUUGGAAUUCAAAAUGUGGCAAGAAAGUUGAGUACAACAGAGGAUUGAGCAUCA
B9: chr4:76721835:76721836:+_ENSG00000138768_ENST00000264904|hu_mus|hu_hu_hu_mus_True|68_98 (ssRNA)
RNA: GGGAGUUCUACAGUCCGACGAUCGUUUGGCUGGGGUUCUGAGAUGCCUCUGGAAUAUAACUCAUGUUGCUAAUAAAAUCCUAGUUUCUCUAUGAAAUUCUCUUUGCCAAUCCUCUUCUCUAUUAGUUGCUUUAGUUUCUCUUUCAACAGAGGAUUGAGCAUCA
B10: chr2:198351390:198351391:-_ENSG00000144381_ENST00000345042|hu_hu|hu_hu_hu_mus_False|8_38 (ssRNA)
RNA: GGGAGUUCUACAGUCCGACGAUCUCAUUCCCACCCUCCACAGAAAGGCUGCUUCUGAACUCUCAUGUGGUGACACAGCGCUACAGUCCUGAUGCUCACAGAAUAGUAGAGAUGCCUCAGUGAUUUAUUAAGUUGAAAGGACACCAACAGAGGAUUGAGCAUCA
B11: chr11:58768410:58768411:+_ENSMUSG00000078851_ENSMUST00000108817|mus_mus|FALSE|FALSE (ssRNA)
RNA: GGGAGUUCUACAGUCCGACGAUCCUUCUUAUUGUCGCGGGCCGCAUUACCAGCCAAUUCCAGGAUCUCAGCAGUCAGAUAUUCUAGCACAGCCGCCAGGUACACCGGGGCACCAGCGCCGACCCGCUCCGAAUAAUUACCCUUCAACAGAGGAUUGAGCAUCA
B12: chr2:198351390:198351391:-_ENSG00000144381_ENST00000345042|hu_hu|hu_hu_hu_mus_False|8_8 (ssRNA)
RNA: B10 RNA with U103C
B13: chr18:25531195:25531196:-_ENSG00000170558_ENST00000399380|hu_mus|FALSE|FALSE (ssRNA)
RNA: GGGAGUUCUACAGUCCGACGAUCCUUUUUUUUUUUUUGUGUGUAAUUUUUUUGGUACAAAUUAUGUAAAACACUUGUGCUAAGAACUUUUACCCCUCCCCAAAACGAAACAAACAAAAAGAAAAUAAAAAAAUUUAAAAAAAACAACAGAGGAUUGAGCAUCA
B14: chr3:176767854:176767855:-_ENSG00000177565_ENST00000430069|hu_hu|motif|central (ssRNA)
RNA: GGGAGUUCUACAGUCCGACGAUCGACAUCCUUGUUGCUUGGAACAUCUUGCCCUCCUUCUCGUAUACAAUGUCUAAGUACGGACUGUGUAGAGCCACUGGUGCUGUUCUCACUAAGAUUCCAUAUUCUUGCUGUUGAGUCUCCCAACAGAGGAUUGAGCAUCA
B15: chr2:192225418:192225419:+_ENSG00000128641_ENST00000304164|hu_hu|motif|central (ssRNA)
RNA: GGGAGUUCUACAGUCCGACGAUCAUAGAACACAUGGAAGUUUCUUUCACCUCUUGGCUGUUUAACAACCCGAGAUUUCUCGGAAAGAUAGUUACUUAUUACUCCUCCUAGUGGAUCGCCUUUAAAGUCAAAUUCAAUAUCCAUCAACAGAGGAUUGAGCAUCA
B16: chr3:90056536:90056537:+_ENSMUSG00000052310_ENSMUST00000015467|mus_mus|motif|central (ssRNA)
RNA: GGGAGUUCUACAGUCCGACGAUCCAGCUUGUCUCUGAGAUGUACUGCCUGGCCUCUGACUGUAGCAGUCUGCCUCCUUCGGAUGUCCCUGACCACGUCUGUAGUAACUUCGCUAUCUCUUAUUCUUUGGGUCUGGGGCUAGCCCAACAGAGGAUUGAGCAUCA
B17: 57970547_57971517_2536_CDS_ENSG00000155980_ENST00000455537|human|control|control (ssRNA)
RNA: GGGAGUUCUACAGUCCGACGAUCCUCAUGUCGCUCGUACAGAAAUGUCAGCUCCUGCAGCUUGGUGCUCUUCUCGUGUUCUUCGCUCUUCAGCUUCUCGUAGUCAGCCUGAAGCUUCUCUAGCUCUAACUGGAGCUUCUGAUUCAACAGAGGAUUGAGCAUCA
B18: chr10:112364808:112364809:-_ENSMUSG00000074748_ENSMUST00000099276|mus_hu|FALSE|FALSE (ssRNA)
RNA: GGGAGUUCUACAGUCCGACGAUCAGGGCAAGGAAGAGGGCUCUGCUCAGCCAAAUGCUAGGCCUUGUCCUCAAGUCAGCUGAAUCAUUGUAGUCUGGACUUUUGGGAAACACGUGGUUUUGACCUUUUCUUCUUGCUGGAGUCCAACAGAGGAUUGAGCAUCA
B19: chr1:54683890:54683891:+_ENSG00000116221_ENST00000360840|hu_hu|FALSE|FALSE (ssRNA)
RNA: GGGAGUUCUACAGUCCGACGAUCGGGGUUUCAGGAUUCAGAGGGGUCCUCCGCUCACGCAGCACCAUGCAAAUAUAGAGCUAAAAACUUUCUGAAUGUCUCUGGCUUGAAACCAACUGGGCCAACAGGUUCCACAACCACUCUCAACAGAGGAUUGAGCAUCA
B20: chr13:112505112:112505113:+_ENSMUSG00000032727_ENSMUST00000109272|mus_hu|FALSE|FALSE (ssRNA)
RNA: GGGAGUUCUACAGUCCGACGAUCCAUAAAGGAUUCAGGGACGGCAAUGCCCAUUUUCAAUCUUUUUGCUGGUCUCUCUGACUCUUCACUGCACAUGUUCAUAGGGUUUAGCUCCGAGUGAUAAAAUCCAGUCUCAAAUAAAUUCAACAGAGGAUUGAGCAUCA
B21: chr16:18804634:18804635:-_ENSG00000170540_ENST00000304414|hu_mus|FALSE|FALSE (ssRNA)
RNA: GGGAGUUCUACAGUCCGACGAUCAUUUUUCUUUUCUUUUUGCUUGAGAAGUUUGUUUAUCUCCCUUUUGGCCAUUCCAAUGUACUUCAGAAUGAUCCCAUGUUGGUUUAGUCCAGGAAGCAACAGCACAAAUGUCACAAUCAGCAACAGAGGAUUGAGCAUCA
B22: chr10:32300344:32300345:-_ENSG00000170759_ENST00000302418|hu_mus|FALSE|FALSE (ssRNA)
RNA: GGGAGUUCUACAGUCCGACGAUCGAGUUUACAAGAGUGGGUAGGAAACAGCUGUACAGGGUAGGAGUAAUUUACACAUUAAAAAAUUAAAUUUCUACAAUCCCAAGGAAUAGAGGUUAGUUAGUGAAAGACUGAUUUUAUGUCCAACAGAGGAUUGAGCAUCA

target: T1, UNK ZnF1-3 (human, UniProt Q9C0B0 31-174); test: nsRBNS (natural sequence RNA bind-n-seq); RBNS binding buffer (assumed for nsRBNS): 25 mM Tris pH 7.5, 150 mM KCl, 3 mM MgCl2, 0.01% Triton X-100, 500 ug/ml BSA, 20 U/ml SUPERase-In, 4 C; UNK is unkempt and MSI1 is Musashi-1; names of the RNAs are library labels; protein concentration not given here; high values mean tight binding
T1 sequence: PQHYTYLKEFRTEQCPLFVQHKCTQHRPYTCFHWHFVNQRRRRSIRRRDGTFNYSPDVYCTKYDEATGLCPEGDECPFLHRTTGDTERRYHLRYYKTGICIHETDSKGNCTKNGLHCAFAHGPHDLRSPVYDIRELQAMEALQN

Binder	binding signal [enrichment R]
B1	0.549
B2	1.01
B3	1.42
B4	0.644
B5	1.36
B6	1.01
B7	1.23
B8	1.17
B9	0.496
B10	1.83
B11	1.09
B12	1.69
B13	2.83
B14	0.589
B15	0.947
B16	0.556
B17	0.418
B18	0.695
B19	1.47
B20	0.665
B21	0.805
B22	2.12
